In PubChem BioAssay AID1508642 (National Center for Advancing Translational Sciences (NCATS), 2021):
The whole screen tested about 43,000 compounds, of which about 200 (0.47%) were called active. About 12% were inconclusive and are not listed. Calls follow the shape of the dose curve; as a rule, active = well fitted cell-killing curve with a large enough effect; inconclusive = small, poorly fitted or top-dose-only effect, or effect the other way; inactive = flat fitted curve, though single readings scatter. The list shows a part of the results.

Assay: Cell viability qHTS assay in S16 Pmp22-F2sN cells; also: nearly all actives have a fitted effect of over 65% in size
Conditions: S16 Pmp22-F2sN Schwann cells (luciferase reporters placed in the Pmp22 gene) viability, CellTiter-Glo, 24 h; series mostly up to 57.5 µM; activity change, negative = cytotoxicity: at the top concentration
In short: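 Rat S16 Schwann reporter line, 24 h treatment with library compounds delivered at 23 nL per well. Cell viability by CellTiter-Glo luminescence.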
% is scaled to controls: 0 for no effect and ±100 for the full control effect.

SMILES	activity change, negative = cytotoxicity
Cn1c(=O)n(C)c2cc(NS(=O)(=O)c3ccccc3)c(NCc3ccccc3)cc21	inactive: 1.03%
O=C(NCCO)C(=O)Nc1c2c(nn1-c1ccc(F)cc1)CSC2	inactive: 8.56%
CCC(Sc1nnc(C)n2c1cc1occc12)C(=O)Nc1ccccc1F (configuration not stated)	inactive: -8.59%
CC(=O)Nc1cccc(NC(=O)Cn2cnc3c2c(=O)n(C)c(=O)n3C)c1	inactive: 11.1%
O=C(Nc1ccc(C(=O)OCc2cc(=O)n3nc(C4CC4)sc3n2)cc1)c1ccc(F)cc1	inactive: 3.2%
Cc1nc(N2CCCC2)c2c(C(=O)Nc3cccc(C)c3C)c(C)oc2n1	inactive: 2.32%
CCN(CC)c1ccc(NC(=O)C(Cc2ccccc2)NS(=O)(=O)c2ccc(Br)s2)c(C)c1 (configuration not stated)	inactive: -3.93%
COc1ccccc1N1CCN(C(=O)Cn2ncc3c(=O)oc4ccccc4c32)CC1	inactive: 19%
COc1ccc(S(=O)(=O)N(CC(=O)NCc2ccccc2OC)c2ccc(C)cc2)cc1	inactive: -14.4%
CCOc1ccccc1N(C)C(=O)Cn1cnc2sc(C)c(S(=O)(=O)N3CCC(C)CC3)c2c1=O	inactive: -1.15%
COc1cc(OC)c(NC(=O)COCc2cc(-c3cccs3)on2)cc1Cl	inactive: 4.23%
CCOc1cc(-c2nc(-c3ccc(-c4ccc(C)cc4)nc3OC)no2)cc(OCC)c1OCC	inactive: 6.96%
COc1ccc(Cl)cc1NC(=O)Cn1c2ncccc2c(=O)n1-c1ccc(C)c(C)c1	inactive: -1.49%
Cc1cc(C)cc(N(CC(=O)Nc2cccc(C)c2C)S(=O)(=O)c2c(C)[nH]c(=O)[nH]c2=O)c1	inactive: 4.28%
COc1ccc(C2C=C(c3ccccc3)Nc3nc(NC(=O)c4ccc(C)cc4)nn32)cc1 (configuration not stated)	inactive: -28.2%
COc1ccc2c(CNCc3ccc(C)o3)c(C(=O)O)n(Cc3ccccc3)c2c1	inactive: 1.99%
Cc1ccc(NC(=O)Nc2nnc(N(C)Cc3ccccc3)s2)cc1	inactive: 6.36%
Cc1cc(NS(=O)(=O)c2ccc(NC(=O)COc3ccc(Cl)cc3)cc2)nc(C)n1	inactive: 1.37%
Cc1ccc(-n2nc3c(=O)n(CC(=O)Nc4ccccc4F)nc(C)c3c2C)c(C)c1	inactive: -22.7%
COC(=O)c1ccc(Cl)cc1NC(=O)N1CC(C)Oc2ccccc21 (configuration not stated)	inactive: 1.81%
CCOC(=O)c1ccc(NC(=O)c2cc3cc(C)ccc3n2C)cc1	inactive: 3.42%
Cc1cc(C)c2oc(C(=O)N(Cc3ccc(F)cc3)C3CCS(=O)(=O)C3)cc(=O)c2c1 (configuration not stated)	inactive: 19.9%
CN(C(=O)c1cc(-c2ccccc2O)on1)c1ccccc1	inactive: -8.08%
COc1ccc(S(=O)(=O)N2CCC(c3ccncc3)CC2)cc1Cl	inactive: -16.7%
CCCCOc1c(Cl)cc(C(=O)N(Cc2ccc(C)o2)C2CCS(=O)(=O)C2)cc1Cl (configuration not stated)	inactive: -16.8%

SMILES	activity change, negative = cytotoxicity
COc1ccc(C(CNC(=O)COc2ccc(C)cc2)N2CCCCC2)cc1 (configuration not stated)	inactive: -1.17%
COc1ccccc1NC(=O)c1c(NCc2sccc2C)sc2c1CCCCC2	inactive: -19.4%
CN(C(=O)Cn1c(=O)n(CCCS(=O)(=O)C2CCCCC2)c(=O)c2ccccc21)c1ccccc1	inactive: 11.9%
CCOC(=O)c1c(C)oc2ccc(N(C(=O)Oc3ccccc3)S(=O)(=O)c3ccccc3)cc12	inactive: 2.55%
CCOc1ccc(/C=C(\C#N)c2nc(-c3cc4ccccc4oc3=O)cs2)c(OCC)c1	inactive: 6.06%
CCN1CCN(C(c2ccc(OC)cc2)c2c(O)cc(C)n(CCOC)c2=O)CC1 (configuration not stated)	inactive: -2.87%
Cc1cc(C)cc(NC(=O)CSc2nccn2-c2ccccc2)c1	inactive: -1.31%
Cc1cc(Br)ccc1NC(=O)c1cc2c(=O)n(C)c3cc(Cl)ccc3c2s1	inactive: 14.4%
O=C(NC1CC(=O)N(c2ccccc2)C1)C1CCCCC1 (configuration not stated)	inactive: -3.28%
Cc1cccc(NC(=O)C2CCN(S(=O)(=O)c3cccc4nsnc34)CC2)c1C	inactive: 26.1%
COc1ccc(NC(=O)C2=C(C)Nc3nc(SCc4ccccc4C)nn3C2c2ccc(Br)cc2)cc1 (configuration not stated)	inactive: -5.08%
Cc1ccc2c(c1)sc1nc(=O)n(-c3ccc(Cl)cc3)c(=O)n12	inactive: 12.6%
Cc1ccc(-c2cc(N)n3nc(-c4ccc(C)cc4)cc3n2)cc1	inactive: -4%
CCOC(=O)c1noc2ncnc(Nc3ccc(C)c(F)c3)c12	inactive: 12%
CC(=O)c1ccc(N2CCN(c3nc4c(S(=O)(=O)c5ccccc5)nnn4c4ccc(Cl)cc34)CC2)cc1	inactive: -1.89%
Cc1c(-c2nsc(NC(=O)c3ccc(Cl)cc3)n2)nnn1-c1ccc(C(C)C)cc1	inactive: -1.85%
CC(CC(=O)NCc1ccc(Cl)cc1)CC1=NS(=O)(=O)c2ccccc2N1 (configuration not stated)	inactive: 5.26%
O=C(Cn1cc(SCc2ccc(C(F)(F)F)cc2)c2ccccc21)N1CCCCC1	inactive: -5.04%
COc1ccc2c(CNCc3ccc(Cl)cc3)c(C(=O)O)n(Cc3ccccc3C)c2c1	inactive: -5.72%
CCc1cccc2c(-c3ccccc3)nc(SCC(=O)Nc3ccccc3)nc12	inactive: 4.37%
COc1ccc(N2CCN(CCCNC(=O)C3COc4ccc(OC)cc4C3)CC2)cc1 (configuration not stated)	inactive: -17.4%
COc1ccc(-c2cc(C)no2)cc1S(=O)(=O)NCc1ccc(OC(C)C)cc1	inactive: -0.394%
CCC(=O)N1c2ccccc2CC1C(=O)NCCc1ccc(SC)cc1 (configuration not stated)	inactive: 15.1%
Cc1ccccc1OCCn1cc(C(=O)C2CCCCC2)c2ccccc21	inactive: 0.18%
CCOC(=O)Cn1c(C2CC(=O)N(c3ccc(C)cc3)C2)nc2ccccc21 (configuration not stated)	inactive: 9.81%

SMILES	activity change, negative = cytotoxicity
Cc1ccc(C)c(N2CCN(C(=O)Cn3cnc4sc(C)c(S(=O)(=O)N5CCN(c6ncccn6)CC5)c4c3=O)CC2)c1	inactive: -28.4%
O=[N+]([O-])c1ccc(C(c2sc3nc(-c4ccco4)nn3c2O)N2CCN(Cc3ccccc3)CC2)cc1 (configuration not stated)	inactive: 7.28%
O=C(Nc1ccc(OCc2cc(=O)n3ccsc3n2)cc1)c1ccc(F)cc1	inactive: 7.4%
Cc1nnc(N2CCC(C(=O)NCCc3ccccc3)CC2)c2nn(-c3ccccc3)c(C)c12	inactive: 0.725%
COc1ccc(CNC(=O)CSCc2nc(-c3ccccc3F)oc2C)cc1	inactive: -6.22%
CCc1ccc(-c2nc(CN3CCC(C(=O)NCCc4ccc(C)cc4)CC3)c(C)o2)cc1	inactive: 21%
Cc1cccc(N(CC(=O)NCc2ccccc2)S(C)(=O)=O)c1C	inactive: -2.34%
Cc1ccc(C)c(NC(=O)Cn2cnc3c(oc4ccccc43)c2=O)c1	inactive: 0.897%
COc1ccc(NC(=O)C(c2ccccc2)N2Cc3ccccc3C2=O)cc1 (configuration not stated)	inactive: 0.799%
Cc1cc(C)c2c(=O)cc(C(=O)Nc3ccc(C)c(Cl)c3)oc2c1	inactive: 0.0088%
COc1ccc(-c2cc(OC(=O)c3ccccc3C)c3c(C)oc(C)c3c(=O)c2)cc1	inactive: 3.31%
CCOC(=O)c1c(C)oc2nc(C)nc(Nc3cc(C)cc(C)c3)c12	inactive: 1.77%
CC(=O)N1CCCc2cc(S(=O)(=O)N(CCN(C)C)Cc3ccccc3)ccc21	inactive: 6.89%
CCc1ccc2oc(C(=O)NCC(c3ccc(Cl)cc3)N3CCOCC3)c(C)c2c1 (configuration not stated)	inactive: -13.1%
Cc1csc2nc(COC(=O)c3ccc(F)cc3)cc(=O)n12	inactive: -13.9%
O=C(CSc1nc2ccccc2n1Cc1ccc(F)cc1)N1CCN(c2ccc(F)cc2)CC1	inactive: 4.76%
Cc1ccc(C)c(NC(=O)CSc2nnc(CNC(=O)c3ccccc3)n2-c2ccccc2)c1	inactive: 17.5%
CCOc1ccc(NC(=O)c2ccc(CN3C(=O)C(C)=C(c4ccc(C)cc4)S3(=O)=O)cc2)cc1	inactive: 0.536%
CC(=O)Nc1ccc(NC(=O)CCc2c(C)nc3c(c(C)nn3-c3ccc(C)cc3)c2C)cc1	inactive: 3.21%
CC(=O)Nc1ccccc1-c1nc2ccccc2n(C(C)C(=O)Nc2cc(Cl)ccc2C)c1=O (configuration not stated)	inactive: -5.36%
CCN(CC)S(=O)(=O)c1nnc(NC(=O)COc2ccc(C)cc2)s1	inactive: -1.36%
O=C(Nc1ccccc1Cl)c1ccc(F)c(S(=O)(=O)NCc2ccc(Cl)c(Cl)c2)c1	inactive: -2.35%
CCOC(=O)c1sc(N2C(=O)c3oc4cc(C)c(C)cc4c(=O)c3C2c2ccc(C)cc2)nc1C (configuration not stated)	inactive: -7.52%
COc1ccc(CN2CCCN(CC(=O)Nc3cc(C)ccc3C)S2(=O)=O)cc1	inactive: -12.5%
CCC(=O)Nc1ccccc1-c1nc2ccccc2n(Cc2cccc(Br)c2)c1=O	inactive: -2.86%

SMILES	activity change, negative = cytotoxicity
Cn1c(=O)c2sccc2n2c(CCCC(=O)Nc3ccc(Cl)cc3)nnc12	inactive: 3.56%
COc1cc(OC)c(NC(=O)c2sc3nc4n(c(=O)c3c2C)CCCC4)cc1Cl	inactive: -2.32%
COc1ccc(S(=O)(=O)NCCc2sc(C)nc2C)cc1	inactive: 2.55%
CCCOc1cccc(C(=O)Nc2cc(-c3nc4ccccc4[nH]3)ccc2C)c1	inactive: -23.5%
CCn1c(CNC(=O)C23CC4CC(CC(C4)C2)C3)nnc1SCC(=O)Nc1ccc(C)cc1	inactive: 0.794%
Cc1nc2c3cccnc3nn2c(C)c1CCC(=O)NCc1ccccc1Cl	inactive: 18.1%
Cc1ccc(S(=O)Cc2ccc(C(=O)NCc3ccc(OC(C)C)cc3)o2)cc1 (configuration not stated)	inactive: -9.74%
CCOc1ccccc1NC(=O)CSc1nc2ccccc2nc1Cc1ccc(C)cc1	inactive: 24.3%
Cc1ccc2c(Sc3ccccc3)c(C(=O)NCc3ccccc3F)[nH]c2c1	inactive: 5.01%
CC(=O)c1ccc(NC(=O)c2sc(-n3nc(C)c(CCC(C)C)c3C)nc2C)cc1	inactive: -3.66%
CCOc1cc(Cn2c(-c3ccc(O)c(OCC)c3)nc3ccccc32)ccc1O	inactive: -10.2%
O=C(CC1C(=O)OCCN1Cc1ccccc1)Nc1cccc(Cl)c1 (configuration not stated)	inactive: -0.578%
Cc1ccc(CCNC(=O)CN2C(=O)COc3ccc(S(=O)(=O)N4CCCC4)cc32)cc1	inactive: 6.36%
CCCCC(=O)N1CC(=O)Nc2ccc(F)cc2C1c1ccc(F)cc1 (configuration not stated)	inactive: -0.011%
CCc1ccc(OCC(=O)Nc2ccc(S(=O)(=O)Nc3onc(C)c3C)cc2)cc1	inactive: 2.79%
COc1ccc(OC2CCN(S(=O)(=O)c3cccc(F)c3)CC2)cc1	inactive: -2.71%
Cc1ccc2oc(=O)n(CCNC(=O)Nc3ccccc3C)c2c1	inactive: -18.5%
Cc1ccc(CNC(=O)Cc2c(C(=O)O)c(C)cn2C)cc1	inactive: 4%
CCCCn1c(=O)c2oc3ccccc3c2n(CC(=O)Nc2cc(C)ccc2C)c1=O	inactive: -0.216%
COc1cc(OC)c(NC(=O)Cc2c(C(=O)O)c(C)cn2C)cc1Cl	inactive: -2.34%
COc1ccc(NC(=O)C2=C(C)Nc3ncnn3C2c2sccc2C)cc1 (configuration not stated)	inactive: 4.32%
CC(=O)N1CCCC1c1nc2ccccc2n1Cc1c(F)cccc1Cl (configuration not stated)	inactive: 24.6%
